Numbering of substitutions follows the chain as printed; changes in the protein carry UniProt numbers. This is one part of the list.

T1: RBFOX1 RRM RbFoxmut (Fox-RRM*) (Homo sapiens, UniProt Q9NWB1 109-208, R118D;E147R;N151S;E152T)
T1 sequence: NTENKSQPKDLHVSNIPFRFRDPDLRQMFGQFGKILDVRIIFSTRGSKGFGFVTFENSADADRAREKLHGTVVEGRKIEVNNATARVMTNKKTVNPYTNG

B1: GCGUAAU (DNA:RNA)
RNA: GGGAGACCGGAAUUCAGAUUGUCCGCGUAAUUUAAAUCCCGUCGUAGCCACCA
DNA 1: CAATCTGAATTCCGGTCTCCC
DNA 2: TGGTGGCTACGACGGGATT
B2: UGCUACA (DNA:RNA)
RNA: B1 RNA with G25U, C26G, G27C, A30C, U31A
DNA 1: CAATCTGAATTCCGGTCTCCC
DNA 2: TGGTGGCTACGACGGGATT
B3: AGGAAAU (DNA:RNA)
RNA: B1 RNA with G25A, C26G, U28A
DNA 1: CAATCTGAATTCCGGTCTCCC
DNA 2: TGGTGGCTACGACGGGATT
B4: CUUUAGG (DNA:RNA)
RNA: B1 RNA with G25C, C26U, G27U, A30G, U31G
DNA 1: CAATCTGAATTCCGGTCTCCC
DNA 2: TGGTGGCTACGACGGGATT
B5: AUGUUGA (DNA:RNA)
RNA: B1 RNA with G25A, C26U, A29U, A30G, U31A
DNA 1: CAATCTGAATTCCGGTCTCCC
DNA 2: TGGTGGCTACGACGGGATT
B6: GCUCUAA (DNA:RNA)
RNA: B1 RNA with G27U, U28C, A29U, U31A
DNA 1: CAATCTGAATTCCGGTCTCCC
DNA 2: TGGTGGCTACGACGGGATT
B7: UUUUCAU (DNA:RNA)
RNA: B1 RNA with G25U, C26U, G27U, A29C
DNA 1: CAATCTGAATTCCGGTCTCCC
DNA 2: TGGTGGCTACGACGGGATT
B8: CUCGCUG (DNA:RNA)
RNA: GGGAGACCGGAAUUCAGAUUGUCCCUCGCUGUUAAAUCCCGUCGUAGCCACCA
DNA 1: CAATCTGAATTCCGGTCTCCC
DNA 2: TGGTGGCTACGACGGGATT
B9: GAUUCCA (DNA:RNA)
RNA: B1 RNA with C26A, G27U, A29C, A30C, U31A
DNA 1: CAATCTGAATTCCGGTCTCCC
DNA 2: TGGTGGCTACGACGGGATT
B10: UCGGGAC (DNA:RNA)
RNA: B1 RNA with G25U, U28G, A29G, U31C
DNA 1: CAATCTGAATTCCGGTCTCCC
DNA 2: TGGTGGCTACGACGGGATT
B11: CUCGCAU (DNA:RNA)
RNA: B8 RNA with U30A, G31U
DNA 1: CAATCTGAATTCCGGTCTCCC
DNA 2: TGGTGGCTACGACGGGATT
B12: UCUUUAG (DNA:RNA)
RNA: B1 RNA with G25U, G27U, A29U, U31G
DNA 1: CAATCTGAATTCCGGTCTCCC
DNA 2: TGGTGGCTACGACGGGATT
B13: AUCUUAA (DNA:RNA)
RNA: B8 RNA with C25A, G28U, C29U, U30A, G31A
DNA 1: CAATCTGAATTCCGGTCTCCC
DNA 2: TGGTGGCTACGACGGGATT
B14: UCCUACA (DNA:RNA)
RNA: B1 RNA with G25U, G27C, A30C, U31A
DNA 1: CAATCTGAATTCCGGTCTCCC
DNA 2: TGGTGGCTACGACGGGATT
B15: UACUGAA (DNA:RNA)
RNA: B1 RNA with G25U, C26A, G27C, A29G, U31A
DNA 1: CAATCTGAATTCCGGTCTCCC
DNA 2: TGGTGGCTACGACGGGATT
B16: CGAUAAA (DNA:RNA)
RNA: B1 RNA with G25C, C26G, G27A, U31A
DNA 1: CAATCTGAATTCCGGTCTCCC
DNA 2: TGGTGGCTACGACGGGATT
B17: CAGUUAA (DNA:RNA)
RNA: B1 RNA with G25C, C26A, A29U, U31A
DNA 1: CAATCTGAATTCCGGTCTCCC
DNA 2: TGGTGGCTACGACGGGATT
B18: CACUAGU (DNA:RNA)
RNA: B1 RNA with G25C, C26A, G27C, A30G
DNA 1: CAATCTGAATTCCGGTCTCCC
DNA 2: TGGTGGCTACGACGGGATT
B19: GGACGCG (DNA:RNA)
RNA: B8 RNA with C25G, U26G, C27A, G28C, C29G, U30C
DNA 1: CAATCTGAATTCCGGTCTCCC
DNA 2: TGGTGGCTACGACGGGATT
B20: AAUCGAU (DNA:RNA)
RNA: B1 RNA with G25A, C26A, G27U, U28C, A29G
DNA 1: CAATCTGAATTCCGGTCTCCC
DNA 2: TGGTGGCTACGACGGGATT

This test deals with T1, RBFOX1 RRM RbFoxmut (Fox-RRM*). Kind of test: EMSA; HiTS-Eq, 1 nM pool, 10 min; buffer printed only for the single-RNA assays: 10 mM Tris pH 7.5, 150 mM NaCl, 3.4 mM EDTA, 0.001% NP-40, 30 C. The settings on record: tags: His6 N-terminal (pET28a); label: 5' 32P. A digest of the protocol: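 A pool of RNA with 7 randomized nucleotides, 5′-radiolabelled and with DNA-annealed flanks, was equilibrated at 1 nM for 10 min in 50 µL with purified RbFox RRM, wild type or mutant, across increasing protein concentrations. Free RNA was separated by 8% native PAGE, excised, reverse-transcribed, barcoded by PCR and sequenced. Relative association constants were obtained from read-count changes of each RNA species versus the control reaction and normalised to the cognate motif.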
(A gel shift assay detects complexes by their altered migration in electrophoresis.)
Regarding B1, the binding signal was 0.11 KA relative to UGCAUGU.

On to B2, for which the binding signal was 0.0945 KA relative to UGCAUGU. Consider B3, for which the binding signal was 0.0874 KA relative to UGCAUGU. Take B4: the binding signal was 0.0837 KA relative to UGCAUGU. For B5, the binding signal was 0.158 KA relative to UGCAUGU. In the case of B6, the binding signal was 0.0761 KA relative to UGCAUGU. Consider B7, for which the binding signal was 0.106 KA relative to UGCAUGU. Turning to B8, the binding signal was 0.108 KA relative to UGCAUGU. For B9, the binding signal was 0.0705 KA relative to UGCAUGU. On to B10, for which the binding signal was 0.0751 KA relative to UGCAUGU. Regarding B11, the binding signal was 0.121 KA relative to UGCAUGU.

Consider B12, for which the binding signal is 0.135 KA relative to UGCAUGU. In the case of B13, the binding signal is 0.132 KA relative to UGCAUGU. With B14, the binding signal is 0.0772 KA relative to UGCAUGU. Regarding B15, the binding signal is 0.0753 KA relative to UGCAUGU. Regarding B16, the binding signal is 0.0781 KA relative to UGCAUGU. B17: the binding signal is 0.127 KA relative to UGCAUGU. For B18, the binding signal is 0.108 KA relative to UGCAUGU. As for B19, the binding signal is 0.119 KA relative to UGCAUGU.

For B20, the binding signal was 0.0717 KA relative to UGCAUGU.

(Values after article PMC9911399, “Two distinct binding modes provide the RNA-binding protein RbFox with extraordinary sequence specificity”.)
